This is one part of the list. The full chains were built here from the parent and the listed change. Inactive controls read about 0.05.
B1: TEV protease; numbered along this chain (parent)
chain: MGESLFKGPRDYNPISSSICHLTNESDGHTTSLYGIGFGPFIITNKHLFRRNNGTLVVQSLHGVFKVKDTTTLQQHLVDGRDMIIIRMPKDFPPFPQKLKFREPQREERICLVTTNFQTKSMSSMVSDTSCTFPSGDGIFWKHWIQTKDGQCGSPLVSTRDGFIVGIHSASNFTNTNNYFTSVPKNFMELLTNQEAQQWVSGWRLNADSVLWGGHKVFMVKPEEPFQPVKEATQL

Variants of: B1
Test: raw area under fraction-flipped curve 0-4 h after induction (AUC4h, not background-subtracted), DNA-recorder readout of cleavage of the substrate (dimensionless); higher = more cleavage of the substrate by the protease variant
Settings: temperature: 34 °C; time window: 0-4 h after rhamnose induction
Protocol: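 In vivo DNA recorder in E. coli TOP10(DE3) ΔrhaA at 34 °C. Each TEVp single-site mutant (parent TEVp 0) is paired with a single-site variant of the 7-mer TEVs (canonical ENLYFQ|S). The substrate sits between flexible linkers in a Bxb1-sfGFP-TEVs-SsrA fusion, so cleavage stabilises Bxb1 and speeds flipping of a recombination array, read by NGS. The value is the raw area under the fraction-flipped curve over 0-4 h after rhamnose induction (AUC4h), with ≥20 reads per time point. It is not background-subtracted; inactive controls average about 0.047.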
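Note: Bxb1 expression induced with 0.2% (w/v) L-rhamnose at OD600 near 0.5, cultures sampled hourly, flipped fraction per protease–substrate barcode pair counted by paired-end Illumina sequencing.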

Variant | area with substrate FNLYFQS | area with substrate LNLYFQS | area with substrate MNLYFQS | area with substrate SNLYFQS | area with substrate WNLYFQS | area with substrate HNLYFQS | area with substrate INLYFQS | area with substrate GNLYFQS | area with substrate NNLYFQS | area with substrate VNLYFQS
MGESLFKGPRDYNPISSSICHLTNESDGHTTSLYGIGFGPFIITNKHLFRRNNGTLVVQSLHGVFKVKDTTTLQQHLVDGRDMIIIRMPKDFPPFPQKLKFREPQREERICLVTTNFQTKSMSSMVSDTSCTFPSGDGIFWKHWIQTKDGQCGSPLVSTRDGFIVGIHSASNFCNTNNYFTSVPKNFMELLTNQEAQQWVSGWRLNADSVLWGGHKVFMVKPEEPFQPVKEATQL [T174C] | 0.067 | 0.0643 | 0.0564 | 0.0441 | 0.0562 |  |  |  |  | 
MGESLFKGPRDYNPISSSICHLTNESDGHTTSLYGIGFGPFIITNKHLFRRNNGTLVVQSLHGVFKVKDTTTLQQHLVDGRDMIIIRMPKDFPPFPQKLKFREPQREERICLVTTNFQTKSMSSMVSDTSCTFPSGDGIFWKHWIQTKDGQCGSPLVSTRDGFIVGIHSASNFFNTNNYFTSVPKNFMELLTNQEAQQWVSGWRLNADSVLWGGHKVFMVKPEEPFQPVKEATQL [T174F] | 0.0604 |  |  | 0.0443 |  | 0.0603 | 0.0608 |  |  | 
MGESLFKGPRDYNPISSSICHLTNESDGHTTSLYGIGFGPFIITNKHLFRRNNGTLVVQSLHGVFKVKDTTTLQQHLVDGRDMIIIRMPKDFPPFPQKLKFREPQREERICLVTTNFQTKSMSSMVSDTSCTFPSGDGIFWKHWIQTKDGQCGSPYVSTRDGFIVGIHSASNFTNTNNYFTSVPKNFMELLTNQEAQQWVSGWRLNADSVLWGGHKVFMVKPEEPFQPVKEATQL [L156Y] | 0.06 |  | 0.0496 | 0.0642 | 0.0354 | 0.0543 |  | 0.0588 | 0.0495 | 0.0475
MGESLFKGPRDYNPISSSICHLTNESDGHTTSLYGIGFGPFIITNKHLFRRNNGTLVVQSLHGVFKVKDTTTLQQHLVDGRDMIIIRMPKDFPPFPQKLKFREPQREERICLVTTNFQTKSMSSMVSDTSCTFPSGDGIFWKHWIQTKDGQCGSPLVSKRDGFIVGIHSASNFTNTNNYFTSVPKNFMELLTNQEAQQWVSGWRLNADSVLWGGHKVFMVKPEEPFQPVKEATQL [T159K] | 0.0628 | 0.0557 |  |  | 0.0657 | 0.0633 | 0.0709 | 0.0483 |  | 
MGESLFKGPRDYNPISSSICHLTNESDGHTTSLYGIGFGPFIITNKHLFRRNNGTLVVQSLHGVFKVKDTTTLQQHLVDGRDMIIIRMPKDFPPFPQKLKFREPQREERICLVTTNFQTKSMSSMVSDTSCTFPSGDGIFWKHWIQTKDGQCGSPLVSPRDGFIVGIHSASNFTNTNNYFTSVPKNFMELLTNQEAQQWVSGWRLNADSVLWGGHKVFMVKPEEPFQPVKEATQL [T159P] | 0.0442 |  | 0.0735 | 0.0716 |  |  |  |  |  | 
MGESLFKGPRDYNPISSSICHLTNESDGHTTSLYGIGFGPFIITNKHLFRRNNGTLVVQSLHGVFKVKDTTTLQQHLVDGRDMIIIRMPKDFPPFPQKLKFREPQREERICLVTTNFQTKSMSSMVSDTSCTFPSGDGIFWKHWIQTKDGQCGSPLVSTRDGFIVGIHSASHFTNTNNYFTSVPKNFMELLTNQEAQQWVSGWRLNADSVLWGGHKVFMVKPEEPFQPVKEATQL [N172H] | 0.0682 |  |  | 0.0594 |  |  |  |  |  | 
MGESLFKGPRDYNPISSSICHLTNESDGHTTSLYGIGFGPFIITNKHLFRRNNGTLVVQSLHGVFKVKDTTTLQQHLVDGRDMIIIRMPKDFPPFPQKLKFREPQREERICLVTTNFQTKSMSSMVSDTSCTFPSGDGIFWKHWIQTKDGQCGSPLVSTRDGFIVGIHSASVFTNTNNYFTSVPKNFMELLTNQEAQQWVSGWRLNADSVLWGGHKVFMVKPEEPFQPVKEATQL [N172V] | 0.055 | 0.052 |  |  |  | 0.0759 |  |  |  | 
MGESLFKGPRDYNPISSSICHLTNESDGHTTSLYGIGFGPFIITNKHLFRRNNGTLVVQSLHGVFKVKDTTTLQQHLVDGRDMIIIRMPKDFPPFPQKLKFREPQREERICLVTTNFQTKSMSSMVSDTSCTFPSGDGIFWKHWIQTKDGQCGSPLVSTRDGFIVGIHSAYNFTNTNNYFTSVPKNFMELLTNQEAQQWVSGWRLNADSVLWGGHKVFMVKPEEPFQPVKEATQL [S171Y] | 0.0554 | 0.0676 | 0.0633 |  |  | 0.0603 |  | 0.0623 | 0.0533 | 
MGESLFKGPRDYNPISSSICHLTNESDGHTTSLYGIGFGPFIITNKHLFRRNNGTLVVQSLHGVFKVKDTTTLQQHLVDGRDMIIIRMPKDFPPFPQKLKFREPQREERICLVTTNFQTKSMSSMVSDTSCTFPSGDGIFWKHWIQTKDGQCGSPLVSTRDGFIVGIHSASNFTNTNNYFTVVPKNFMELLTNQEAQQWVSGWRLNADSVLWGGHKVFMVKPEEPFQPVKEATQL [S182V] | 0.0692 |  |  | 0.0462 | 0.0886 | 0.0564 |  | 0.0737 |  | 
MGESLFKGPRDYNPISSSICHLTNESDGHTTSLYGIGFGPFIITNKHLFRRNNGTLVVQSLHGVFKVKDTTTLQQHLVDGRDMIIIRMPKDFPPFPQKLKFREPQREERICLVTTNFQTKSMSSMVSDTSCTFPSGDGIFWKHWIQTKDGQCGSPLVSTRDGFIVGIHSASNFTNTNNYFTEVPKNFMELLTNQEAQQWVSGWRLNADSVLWGGHKVFMVKPEEPFQPVKEATQL [S182E] | 0.0439 |  |  |  | 0.0578 |  |  |  |  | 
MGESLFKGPRDYNPISSSICHLTNESDGHTTSLYGIGFGPFIITNKHLFRRNNGTLVVQSLHGVFKVKDTTTLQQHLVDGRDMIIIRMPKDFPPFPQKLKFREPQREERICLVTTNFQTKSMSSMVSDTSCTFPSGDGIFWKHWIQTKDGQCGSPLVSTRDGFIVGIHSASNFTNTNNYFTHVPKNFMELLTNQEAQQWVSGWRLNADSVLWGGHKVFMVKPEEPFQPVKEATQL [S182H] | 0.0571 | 0.0633 | 0.0406 |  | 0.0474 | 0.0729 |  | 0.0578 |  | 

Same assay, conditions: temperature: 34 °C; time window: 0-4 h after rhamnose induction

Variant | area with substrate TNLYFQS | area with substrate YNLYFQS | area with substrate PNLYFQS | area with substrate KNLYFQS | area with substrate QNLYFQS
MGESLFKGPRDYNPISSSICHLTNESDGHTTSLYGIGFGPFIITNKHLFRRNNGTLVVQSLHGVFKVKDTTTLQQHLVDGRDMIIIRMPKDFPPFPQKLKFREPQREERICLVTTNFQTKSMSSMVSDTSCTFPSGDGIFWKHWIQTKDGQCGSPLVSKRDGFIVGIHSASNFTNTNNYFTSVPKNFMELLTNQEAQQWVSGWRLNADSVLWGGHKVFMVKPEEPFQPVKEATQL [T159K] | 0.0432 | 0.0646 |  |  | 
MGESLFKGPRDYNPISSSICHLTNESDGHTTSLYGIGFGPFIITNKHLFRRNNGTLVVQSLHGVFKVKDTTTLQQHLVDGRDMIIIRMPKDFPPFPQKLKFREPQREERICLVTTNFQTKSMSSMVSDTSCTFPSGDGIFWKHWIQTKDGQCGSPLVSPRDGFIVGIHSASNFTNTNNYFTSVPKNFMELLTNQEAQQWVSGWRLNADSVLWGGHKVFMVKPEEPFQPVKEATQL [T159P] | 0.0651 | 0.0648 | 0.069 |  | 
MGESLFKGPRDYNPISSSICHLTNESDGHTTSLYGIGFGPFIITNKHLFRRNNGTLVVQSLHGVFKVKDTTTLQQHLVDGRDMIIIRMPKDFPPFPQKLKFREPQREERICLVTTNFQTKSMSSMVSDTSCTFPSGDGIFWKHWIQTKDGQCGSPLVSTRDGFIVGIHSASHFTNTNNYFTSVPKNFMELLTNQEAQQWVSGWRLNADSVLWGGHKVFMVKPEEPFQPVKEATQL [N172H] |  |  |  | 0.0601 | 
MGESLFKGPRDYNPISSSICHLTNESDGHTTSLYGIGFGPFIITNKHLFRRNNGTLVVQSLHGVFKVKDTTTLQQHLVDGRDMIIIRMPKDFPPFPQKLKFREPQREERICLVTTNFQTKSMSSMVSDTSCTFPSGDGIFWKHWIQTKDGQCGSPLVSTRDGFIVGIHSASVFTNTNNYFTSVPKNFMELLTNQEAQQWVSGWRLNADSVLWGGHKVFMVKPEEPFQPVKEATQL [N172V] |  |  | 0.0681 | 0.0515 | 
MGESLFKGPRDYNPISSSICHLTNESDGHTTSLYGIGFGPFIITNKHLFRRNNGTLVVQSLHGVFKVKDTTTLQQHLVDGRDMIIIRMPKDFPPFPQKLKFREPQREERICLVTTNFQTKSMSSMVSDTSCTFPSGDGIFWKHWIQTKDGQCGSPLVSTRDGFIVGIHSAYNFTNTNNYFTSVPKNFMELLTNQEAQQWVSGWRLNADSVLWGGHKVFMVKPEEPFQPVKEATQL [S171Y] | 0.0578 | 0.062 |  |  | 
MGESLFKGPRDYNPISSSICHLTNESDGHTTSLYGIGFGPFIITNKHLFRRNNGTLVVQSLHGVFKVKDTTTLQQHLVDGRDMIIIRMPKDFPPFPQKLKFREPQREERICLVTTNFQTKSMSSMVSDTSCTFPSGDGIFWKHWIQTKDGQCGSPLVSTRDGFIVGIHSASNFTNTNNYFTVVPKNFMELLTNQEAQQWVSGWRLNADSVLWGGHKVFMVKPEEPFQPVKEATQL [S182V] | 0.0591 | 0.0832 |  |  | 0.066
MGESLFKGPRDYNPISSSICHLTNESDGHTTSLYGIGFGPFIITNKHLFRRNNGTLVVQSLHGVFKVKDTTTLQQHLVDGRDMIIIRMPKDFPPFPQKLKFREPQREERICLVTTNFQTKSMSSMVSDTSCTFPSGDGIFWKHWIQTKDGQCGSPLVSTRDGFIVGIHSASNFTNTNNYFTEVPKNFMELLTNQEAQQWVSGWRLNADSVLWGGHKVFMVKPEEPFQPVKEATQL [S182E] |  |  | 0.0535 | 0.0619 | 
MGESLFKGPRDYNPISSSICHLTNESDGHTTSLYGIGFGPFIITNKHLFRRNNGTLVVQSLHGVFKVKDTTTLQQHLVDGRDMIIIRMPKDFPPFPQKLKFREPQREERICLVTTNFQTKSMSSMVSDTSCTFPSGDGIFWKHWIQTKDGQCGSPLVSTRDGFIVGIHSASNFTNTNNYFTHVPKNFMELLTNQEAQQWVSGWRLNADSVLWGGHKVFMVKPEEPFQPVKEATQL [S182H] | 0.06 | 0.0525 | 0.0586 | 0.0675 | 

Source: the supplement of paper PMC12217912
